Test system: Plasmopara viticola (PLASVI)
Assay: whole plant or invertebrate
Conditions: 24 h, read-out: T4 PLASVI in vivo 1 Day Protectant, control of fungal infection
Source text: A blank space indicates not tested.

**Q.** How did the pest or weed control at 100 ppm turn out when `CCCO[C@H]1[C@H](C)OC(=O)[C@@H](NC(=O)c2nccc(OC)c2OCOC(C)=O)COC(=O)[C@@H]1Cc1ccccc1` [Compound 51] was run?
**A.** The pest or weed control at 100 ppm was 25 to 74%.

**Q.** For `COCCOCOc1c(OC)ccnc1C(=O)N[C@H]1COC(=O)[C@H](Cc2ccccc2)[C@@H](OC(=O)C(C)C)[C@H](C)OC1=O` [Compound 11], which pest or weed control at 100 ppm is on record?
**A.** The pest or weed control at 100 ppm was under 25%.

**Q.** For `CCOC(=O)OCOc1c(OC)ccnc1C(=O)N[C@H]1COC(=O)[C@H](Cc2ccccc2)[C@@H](OC(=O)C(C)C)[C@H](C)OC1=O` [Compound 45], which pest or weed control at 100 ppm is on record?
**A.** The pest or weed control at 100 ppm was 75 to 100%.

**Q.** How did the pest or weed control at 100 ppm turn out when `COCCOCC(=O)OCOc1c(OC)ccnc1C(=O)N[C@H]1COC(=O)[C@H](Cc2ccccc2)[C@@H](OCSC)[C@H](C)OC1=O` [Compound 74] was run?
**A.** The pest or weed control at 100 ppm was under 25%.

**Q.** How did the pest or weed control at 100 ppm turn out when `COc1ccnc(C(=O)N[C@H]2COC(=O)[C@H](Cc3ccccc3)[C@@H](OCC(C)C)[C@H](C)OC2=O)c1OCOC(=O)C1CCCC1` [Compound 61] was run?
**A.** The pest or weed control at 100 ppm was 25 to 74%.

**Q.** `CCOCCC(=O)OCOc1c(OC)ccnc1C(=O)N[C@H]1COC(=O)[C@H](Cc2ccccc2)[C@@H](OC(=O)C(C)C)[C@H](C)OC1=O` [Compound 28] was tested. Which pest or weed control at 100 ppm did it give?
**A.** Its pest or weed control at 100 ppm is 25 to 74%.

**Q.** `CCCOCC(=O)OCOc1c(OC)ccnc1C(=O)N[C@H]1COC(=O)[C@H](Cc2ccccc2)[C@@H](OC(=O)C(C)C)[C@H](C)OC1=O` [Compound 35] was tested. Which pest or weed control at 100 ppm did it give?
**A.** Its pest or weed control at 100 ppm is 25 to 74%.

**Q.** How did the pest or weed control at 100 ppm turn out when `COc1ccnc(C(=O)N[C@H]2COC(=O)[C@H](Cc3ccccc3)[C@@H](OC(=O)C(C)C)[C@H](C)OC2=O)c1OC(C)OC` (stereo partly drawn) [Compound 16] was run?
**A.** Its pest or weed control at 100 ppm is under 25%.

**Q.** For `CCC(=O)OCOc1c(OC)ccnc1C(=O)N[C@H]1COC(=O)[C@H](Cc2ccccc2)[C@@H](OC(=O)C(C)C)[C@H](C)OC1=O` [Compound 21], which pest or weed control at 100 ppm is on record?
**A.** The pest or weed control at 100 ppm was 25 to 74%.

**Q.** How did the pest or weed control at 100 ppm turn out when `CCOCOc1c(OC)ccnc1C(=O)N[C@H]1COC(=O)[C@H](Cc2ccccc2)[C@@H](OC(=O)C(C)C)[C@H](C)OC1=O` [Compound 5] was run?
**A.** Its pest or weed control at 100 ppm is under 25%.

**Q.** For `COc1ccnc(C(=O)N[C@H]2COC(=O)[C@H](Cc3ccccc3)[C@@H](OC(=O)C(C)C)[C@H](C)OC2=O)c1OCSC` [Compound 18], which pest or weed control at 100 ppm is on record?
**A.** The pest or weed control at 100 ppm was 25 to 74%.

**Q.** How did the pest or weed control at 100 ppm turn out when `COc1ccnc(C(=O)N[C@H]2COC(=O)[C@H](Cc3ccccc3)[C@@H](OC(=O)C(C)C)[C@H](C)OC2=O)c1OCOC(C)C` [Compound 7] was run?
**A.** The pest or weed control at 100 ppm was 25 to 74%.

— patent US6861390B2, “Derivatives of UK-2A” (priority 2001, dated 2005)
